Laboratory results: PubChem BioAssay AID1345083 (National Center for Advancing Translational Sciences (NCATS), 2018)
In all, about 94,000 compounds went through this assay and about 6,200 (6.6%) were called active. Inconclusive means that the source gave no clear call. Such entries were picked first, then a sample of the others. The call rests on the fitted dose curve; in most records, active means well fitted inhibition curve with a large enough effect; inconclusive means small, poorly fitted or top-dose-only effect; inactive means flat fitted curve, though single readings scatter. Where the call is inconclusive, the potency comes from a doubtful curve fit.

experiment: Cytotoxic Profiling in HEK 293 Cell Line of Diverse Libraries Using Quantitative High-Throughput Screening; details: HEK 293 viability, ATP luminescence (CellTiter-Glo), 48-72 h; activity change, negative = cytotoxicity: at 115 µM (top of the series) unless noted; series mostly up to 115 µM; further: nearly all actives have a fitted effect of over 60% in size
In short: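 CellTiter-Glo luminescence (cellular ATP) was read after 48 or 72 hr of compound exposure at 37 degree Celsius. Cells were HEK 293 plated at 250 cells/well.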
On the % scale 0 is the no-effect control and ±100 the full control effect; potency means the concentration at half of the fitted maximal effect; tags describe the fitted curve by direction and shape.

Row | SMILES | activity change, negative = cytotoxicity | Potency | outcome
1 | O=C(c1cccc(Cl)c1)N1CCCC(C(=O)N2CCC(N3CCCC3=O)CC2)C1 (stereo not given) | inactive: -1.92% | – | –
2 | Cc1ccc(NC(=O)Cn2cccc2-c2nc(-c3ccccc3)no2)cc1 | – | inconclusive: 39.8 µM [inhibitor, partial curve, poor fit] | –
3 | O=C(c1ccc(C(F)(F)F)cc1)N1CCCC(C(=O)N2CCC(N3CCCC3=O)CC2)C1 (stereo not given) | inactive: -1.98% | – | –
4 | COc1cccc(NC(=O)Cn2c(N3CCCCC3)nc(C)c(C)c2=O)c1 | – | inconclusive: 44.7 µM [inhibitor, partial curve, poor fit] | –
5 | COCCNC(=O)[C@H]1C[C@H](Oc2ccccc2)CN1C(=O)c1ccccc1OC | – | – | inactive
6 | CN1CCC2(CC1)CN(C(=O)c1cncc(Br)c1)Cc1ccccc1O2 | inactive: -15.5% | – | –
7 | CN(C)C(=O)CN1C(=O)CO[C@H](c2ccc(NS(=O)(=O)Cc3ccccc3)cc2)[C@H]1CO | inactive: -10.2% | – | –
8 | COc1ccc(NC(=O)Cn2c(-c3ccccc3)nc(C)cc2=O)cc1 | – | inconclusive: 7.08 µM [inhibitor, partial curve, poor fit] | –
9 | COc1ccc(-c2ccc3nc(-c4ccccc4C)oc3c2)c(OC)c1OC | – | inconclusive: 89.1 µM [inhibitor, single point] | –
10 | O=C(Nc1ccc(-c2nnc3n2CCCC3)cc1)c1ccc2ccccc2n1 | inactive: -45.3% | – | –
11 | Cc1nc2c(c(-c3ccc(O)cc3)n1)CN(C(=O)C1CCCC1)CC2 | – | active: 39.8 µM | –
12 | CC(C)c1nc(-c2ccc(OC3CCN(C(=O)c4ccoc4)C3)cc2)no1 (stereo not given) | – | active: 31.6 µM | –
13 | Cc1ccc(CN2CCc3oc(C)c(C(=O)NCCN4CCCCC4)c3C2)cc1 | – | inconclusive: 63.1 µM [inhibitor, partial curve, poor fit] | –
14 | CC(C(=O)N1Cc2c(C(=O)NC3CC3)nn(C)c2C1)c1ccccc1 (stereo not given) | – | – | inactive
15 | COc1ccc(C2Cn3nnc(-c4noc(Cc5cccc(F)c5)n4)c3CO2)cc1 (stereo not given) | – | inconclusive: 31.6 µM [inhibitor, partial curve] | –
16 | CC1CCCN1Cc1c(C(=O)N2CCCCCCC2)nc2sccn12 (stereo not given) | – | inconclusive: 89.1 µM [inhibitor, single point] | –
17 | Cc1ccc(C2(O)CCN(c3cc(C(F)(F)F)ccn3)CC2)nc1 | – | inconclusive: 56.2 µM [inhibitor, partial curve, poor fit] | –
18 | Cc1cc(-c2ccccc2)nc(CN2CC[C@@](O)(C3CCC3)[C@H](C)C2)n1 | – | inconclusive: 56.2 µM [inhibitor, partial curve, poor fit] | –
19 | O=C(NCC(F)F)C1CCN(C(=O)c2ccc(-c3cccs3)cc2)CC1 | – | inconclusive: 56.2 µM [inhibitor, partial curve, poor fit] | –
20 | COCCN1CC(CO)C2(CCN(Cc3ccc(F)c(OC)c3)CC2)C1 (stereo not given) | – | inconclusive: 56.2 µM [inhibitor, partial curve, poor fit] | –
21 | Cc1ccccc1C(=O)N1CCC(C(=O)N2CCC(N3CCOC3=O)CC2)CC1 | inactive: -4.53% | – | –
22 | CC(=O)Nc1ccc(CN2CCC3(C2)C(=O)N(c2ccccc2)c2ccccc23)cc1 (stereo not given) | – | inconclusive: 50.1 µM [inhibitor, partial curve, poor fit] | –

Row | SMILES | activity change, negative = cytotoxicity | Potency | outcome
23 | O=C(c1cc(-c2cccc(C(F)(F)F)c2)c2cccn2n1)N1CCCC1 | – | active: 44.7 µM | –
24 | CC1=C[C@@H](CNC(C)C)[C@H](C(C)C)C[C@H]1Cc1nnc(-c2ccc(N(C)C)cc2)o1 | – | active: 31.6 µM | –
25 | COc1ccccc1-c1cnc(Nc2cccnc2)c2c1CCO2 | – | active: 79.4 µM | –
26 | O=C1CC(c2ccccc2)N(C(=O)CNC(=O)c2cc3ccccc3[nH]2)CCCCCCN1 (stereo not given) | – | inconclusive: 79.4 µM [inhibitor, single point] | –
27 | Cc1cn2nc(C(=O)Nc3ccc4c(c3)OCCO4)cc2c(N2CCCC2)n1 | – | inconclusive: 6.31 µM [inhibitor, full curve, poor fit] | –
28 | CC(=O)NC1(C)CCN(Cc2cnc(-c3ccccc3)s2)CC1 | – | inconclusive: 112 µM [inhibitor, partial curve, poor fit] | –
29 | C[C@H]1CCCN1C(=O)c1nnc(COc2cccc(Cl)c2)n1-c1ccccc1 | – | inconclusive: 100 µM [inhibitor, partial curve] | –
30 | CCOc1ccc(C(=O)N2CCN(c3nnc4ccc(C(F)(F)F)cn34)CC2)cc1 | – | – | inactive
31 | CC(C)c1nc2c(c(-c3ccc(Cl)cc3)n1)CCN(Cc1ccsc1)CC2 | – | active: 44.7 µM | –
32 | Cc1ccccc1-c1cnc2[nH]cc(CC(=O)N3CCCC3)c2c1 | – | active: 89.1 µM | –
33 | O=C(NCc1ccc(Cl)cc1)c1cc2n(n1)CC(c1ccc3c(c1)OCO3)OC2 (stereo not given) | – | inconclusive: 56.2 µM [inhibitor, partial curve, poor fit] | –
34 | CCOC(=O)c1cccc(NC(=O)N2CC[C@@H](CC(=O)NCc3ccccc3)[C@@H](CC)C2)c1 | – | inconclusive: 79.4 µM [inhibitor, partial curve, poor fit] | –
35 | COc1ccc(-c2cc(-c3ccncc3)c3cncn3c2)cc1 | – | inconclusive: 35.5 µM [inhibitor, partial curve, poor fit] | –
36 | CC(C)NC(=O)N1CCNc2cnc(Nc3cccc(C(F)(F)F)c3)nc2C1 | – | active: 35.5 µM | –
37 | COc1cccc(-c2cc(C(=O)N(C)Cc3ccccc3)c3cnn(C)c3n2)c1 | – | inconclusive: 50.1 µM [inhibitor, partial curve, poor fit] | –
38 | COc1cccc(-c2cccc(C(=O)N3CCCC3C(=O)NCc3ccc4c(c3)OCO4)c2)c1 (stereo not given) | – | inconclusive: 50.1 µM [inhibitor, partial curve, poor fit] | –
39 | COCCNC(=O)[C@@H]1C[C@@H](c2ccc(F)cc2)N([S+](=O)([O-])c2cccnc2)C1 | – | inconclusive: 126 µM [inhibitor, single point] | –
40 | COc1ccc(-c2cc(N3CCC(NC(=O)c4ccccc4F)CC3)n[nH]2)cc1 | – | inconclusive: 50.1 µM [inhibitor, partial curve, poor fit] | –
41 | CCOC(=O)C1(Cc2cccc(Cl)c2)CCCN(Cc2cnn(C)c2)C1 (stereo not given) | – | inconclusive: 50.1 µM [inhibitor, partial curve, poor fit] | –
42 | Cc1ccc(NC(=O)N2Cc3[nH]cnc3C[C@H]2c2nc(-c3ccc4ccccc4c3)no2)cc1 | – | inconclusive: 56.2 µM [inhibitor, partial curve, poor fit] | –
43 | COc1ccc(C(=O)N2CC3(Cc4ccccc4N([S+](C)(=O)[O-])C3)C2)cc1 | – | inconclusive: 89.1 µM [inhibitor, single point] | –
44 | CC(C)N1C(=O)C2(CCN(C(=O)Cc3c[nH]c4ccccc34)CC2)C1c1ccccc1 (stereo not given) | – | inconclusive: 50.1 µM [inhibitor, partial curve, poor fit] | –

Row | SMILES | activity change, negative = cytotoxicity | Potency | outcome
45 | CN1CCCN(C(=O)CC2CCCC2)c2ccccc21 | – | inconclusive: 79.4 µM [inhibitor, partial curve, poor fit] | –
46 | COc1ccc(C(CC(=O)N2CCC(Cc3ccccc3)CC2)c2c[nH]c3ccccc23)cc1OC (stereo not given) | – | inconclusive: 14.1 µM [inhibitor, full curve, poor fit] | –
47 | CCC(CC)Nc1ncnc2c1CN(C1CCCNCC1)C(=O)CN2C (stereo not given) | inactive: -0.153% | – | –
48 | O=C(NC1CC1)C1CCCN(Cc2cccc(-c3ccc(F)cc3F)c2)C1 (stereo not given) | – | active: 39.8 µM | –
49 | O=C(NCc1nnc2cc(-c3nc(C4CC4)no3)ccn12)c1ccccc1 | – | inconclusive: 89.1 µM [inhibitor, single point] | –
50 | COc1ccc(CC(=O)N[C@@H]2c3ccccc3C3(CCNCC3)[C@H]2OC)cc1 | – | inconclusive: 39.8 µM [inhibitor, single point] | –
51 | CCn1ccc(C(=O)N2CC3CC(C2)[C@H]2CCCC(=O)N2C3)n1 (stereo not given in full) | inactive: 2.17% | – | –
52 | Cc1ccn2c(C(=O)N3CCn4nc(CCC(=O)NC(C)C)cc4C3)nnc2n1 | inactive: 0.133% | – | –
53 | O=C(NCc1cccc(C(F)(F)F)c1)C1(CCO)CC12CCN(c1ncccn1)CC2 (stereo not given) | – | inconclusive: 89.1 µM [inhibitor, partial curve, poor fit] | –
54 | CNC(=O)c1cc(Br)cn2ccnc12 | – | inactive | –
55 | CC(=O)N1CC2(CCN(C(=O)CCC(=O)O)C2)Cc2ccccc21 (stereo not given) | inactive: 0.458% | – | –
56 | COC(=O)[C@@H]1Cc2c([nH]c3ccccc23)[C@@H]2C[C@@H](NCCCn3ccnc3)C[C@@H](c3ccc(F)c(F)c3)N12 | – | active: 25.1 µM | –
57 | CC1=C[C@@H](CNC(=O)c2ccc(C#N)cc2)[C@H](C(C)C)C[C@H]1CC(=O)NCCN(C)C | – | inconclusive: 100 µM [inhibitor, partial curve, poor fit] | –
58 | CCOc1ccccc1C1NC(=O)N(CC(=O)Nc2ccccc2C(C)C)C2=C1C(=O)OC2 (stereo not given) | – | inconclusive: 79.4 µM [inhibitor, single point] | –
59 | Cc1cccc(C)c1OC1CN(c2cc(C3CC(O)C3)nc(N)n2)C1 (stereo not given) | – | active: 35.5 µM | –
60 | COc1nccc(N2CCC(CC(=O)NCc3cccc(OC)c3OC)CC2)n1 | – | inconclusive: 89.1 µM [inhibitor, single point] | –
61 | CCNC(=O)NC1=N[C@@]23CO[C@H](c4ccccc4)C[C@@H]2CC(=O)[C@H]3S1 | – | inconclusive: 39.8 µM [inhibitor, full curve] | –
62 | CC[C@H]1CN(C(=O)Nc2cccc(OC)c2)CC[C@H]1CC(=O)NCc1ccccc1 | inactive: -13.2% [at 172 µM] | – | –
63 | O=C(NC1CCN(c2ccc3nnc(-c4ccccc4)n3n2)C1)C1CC1 (stereo not given) | – | inconclusive: 50.1 µM [inhibitor, partial curve, poor fit] | –
64 | Cc1ccc(C(=O)N(C)C2CCc3ccccc32)cc1 (stereo not given) | – | active: 100 µM | –
65 | Cc1noc(C)c1CC(=O)N1CCCC(c2nn(C)c(=O)n2C(C)C)C1 (stereo not given) | inactive: 0.178% | – | –
